Source: patent US20170319711A1 (Pfizer, published 2017)

T1: Human 5T4 antigen on cells (human, UniProt Q13641 32-420)
T1 sequence: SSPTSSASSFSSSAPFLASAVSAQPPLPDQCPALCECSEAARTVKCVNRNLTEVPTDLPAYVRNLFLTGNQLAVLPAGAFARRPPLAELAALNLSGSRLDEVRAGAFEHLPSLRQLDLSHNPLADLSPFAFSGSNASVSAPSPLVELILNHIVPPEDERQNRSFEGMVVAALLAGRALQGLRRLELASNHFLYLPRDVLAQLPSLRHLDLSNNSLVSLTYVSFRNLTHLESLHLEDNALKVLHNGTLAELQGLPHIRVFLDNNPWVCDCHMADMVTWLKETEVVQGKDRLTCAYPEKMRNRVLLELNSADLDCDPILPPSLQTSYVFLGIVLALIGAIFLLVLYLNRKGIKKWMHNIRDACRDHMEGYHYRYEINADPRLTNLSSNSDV


What was measured:
[1] = target: T1, Human 5T4 antigen on cells; assay: cell-based or functional assay
[2] = target: T1, Human 5T4 antigen on cells; assay: cell-based or functional assay; remark: listed apart in the source
[3] = target: T1, Human 5T4 antigen on cells; assay: flow cytometry, 10 ug/mL, A431 cells
Procedure: (§1) Cells expressing the 5T4 antigen, and the negative control Raji cells, are plated at a density of 500,000 cells/well on non-tissue culture treated 96 well plates and kept on ice. Dilutions of the A1 and A1-IgG4 antibodies or A1-mcMMAF ADC are made in 3% bovine serum albumin BSA in Dulbecco's phosphate buffered saline (DPBS) and added to the plate at a final concentration of 10 μg/mL. The plates are then incubated on ice for 1 hour followed by 2 washes. The secondary antibody, PE (phycoerythrin) conjugated Goat Anti-Human IgG Fc is added to the wells. After 30 minutes of incubation at 4 C, the mean fluorescence intensity is then measured using a flow cytometer.

[4] = target: T1, Human 5T4 antigen on cells; assay: flow cytometry, 10 ug/mL, PC3mm2 cells
Procedure: as §1

[5] = target: T1, Human 5T4 antigen on cells; assay: flow cytometry, 10 ug/mL, MDAMB468 cells
Procedure: as §1

[6] = target: T1, Human 5T4 antigen on cells; assay: flow cytometry, 10 ug/mL, MDAMD361-DYT2 cells
Procedure: as §1

Binder	IC50 of cell viability after four days, MDAMB361DYT2 cells [1] [ng Ab/ml]	IC50 of cell viability after four days, MDAMB435/5T4 cells [1] [ng Ab/ml]	IC50 of cell viability after four days, MDAMB468 cells [1] [ng Ab/ml]	IC50 of cell viability (MTS) after ten days, 37622a primary lung tumor cells [2] [ng Ab/ml]	Mean Fluorescent Intensity [3]	Mean Fluorescent Intensity [4]	Mean Fluorescent Intensity [5]	Mean Fluorescent Intensity [6]
A1-mcMMAF ADC (other, maleimidocaproyl-monomethylauristatin F (mc-MMAF) on reduced Cys residues, positions not given, also called 5T4-A1 antibody drug conjugate) heavy: EVQLVESGGGLVQPGGSLRLSCAASGYTFTNFGMNWVRQAPGKGLEWVAWINTNTGEPRYAEEFKGRFTISRDNAKNSLYLQMNSLRAEDTAVYYCARDWDGAYFFDYWGQGTLVTVSS[human IgG1 constant region not printed] light: DIQMTQSPSSLSASVGDRVTITCKASQSVSNDVAWYQQKPGKAPKLLIYFATNRYTGVPSRFSGSGYGTDFTLTISSLQPEDFATYYCQQDYSSPWTFGQGTKVEIKRTVAAPSVFIFPPSDEQLKSGTASVVCLLNNFYPREAKVQWKVDNALQSGNSQESVTEQDSKDSTYSLSSTLTLSKADYEKHKVYACEVTHQGLSSPVTKSFNRGEC	104	1.3	534	504	3400	2700	2800	6900
A1-vcMMAE (other, mc-Val-Cit-PABA-MMAE on reduced Cys residues, positions not given) heavy: EVQLVESGGGLVQPGGSLRLSCAASGYTFTNFGMNWVRQAPGKGLEWVAWINTNTGEPRYAEEFKGRFTISRDNAKNSLYLQMNSLRAEDTAVYYCARDWDGAYFFDYWGQGTLVTVSS[human IgG1 constant region not printed] light: DIQMTQSPSSLSASVGDRVTITCKASQSVSNDVAWYQQKPGKAPKLLIYFATNRYTGVPSRFSGSGYGTDFTLTISSLQPEDFATYYCQQDYSSPWTFGQGTKVEIKRTVAAPSVFIFPPSDEQLKSGTASVVCLLNNFYPREAKVQWKVDNALQSGNSQESVTEQDSKDSTYSLSSTLTLSKADYEKHKVYACEVTHQGLSSPVTKSFNRGEC	158	6.8	7670	443				
A3-vcMMAE (other, mc-Val-Cit-PABA-MMAE, residues not stated) heavy: EVQLVESGGGLVQPKGSLKLSCAASGFTFNTYAMNWVRQAPGKGLEWVARIRSKSNNYATYYADSVKDRFTISRDDSQSMLYLQMNNLKTEDTAMYYCVRQWDYDVRAMNYWGQGTLVTVSS[human IgG1 constant region not printed] light: DIVMTQSHIFMSTSVGDRVSITCKASQDVDTAVAWYQQKPGQSPKLLIYWASTRLTGVPDRFTGSGSGTDFTLTISNVQSEDLADYFCQQYSSYPYTFGQGTKLEIKRTVAAPSVFIFPPSDEQLKSGTASVVCLLNNFYPREAKVQWKVDNALQSGNSQESVTEQDSKDSTYSLSSTLTLSKADYEKHKVYACEVTHQGLSSPVTKSFNRGEC	86.8	3.5	161	78.1				
A3-mcMMAF (other, mc-MMAF, residues not stated) heavy: EVQLVESGGGLVQPKGSLKLSCAASGFTFNTYAMNWVRQAPGKGLEWVARIRSKSNNYATYYADSVKDRFTISRDDSQSMLYLQMNNLKTEDTAMYYCVRQWDYDVRAMNYWGQGTLVTVSS[human IgG1 constant region not printed] light: DIVMTQSHIFMSTSVGDRVSITCKASQDVDTAVAWYQQKPGQSPKLLIYWASTRLTGVPDRFTGSGSGTDFTLTISNVQSEDLADYFCQQYSSYPYTFGQGTKLEIKRTVAAPSVFIFPPSDEQLKSGTASVVCLLNNFYPREAKVQWKVDNALQSGNSQESVTEQDSKDSTYSLSSTLTLSKADYEKHKVYACEVTHQGLSSPVTKSFNRGEC	31	0.3	27.7	77.2				
